Assay results published in publication PMC4336329 (PLoS ONE, 2015).
About 14,000 (4.5%) of roughly 310,000 compounds showed an effect of 50% or more. Effects have a minus sign here. The list shows a part of the results.

These compounds were tested against human ether-à-go-go-related gene (hERG) potassium channel (human, UniProt Q12809) (assay: primary screen, population patch clamp on CHO cells stably expressing hERG).
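Note: peak tail current of the secondary pulse compared with the same well before compound.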

Sequence of human ether-à-go-go-related gene (hERG) potassium channel (Q12809 whole entry, looked up): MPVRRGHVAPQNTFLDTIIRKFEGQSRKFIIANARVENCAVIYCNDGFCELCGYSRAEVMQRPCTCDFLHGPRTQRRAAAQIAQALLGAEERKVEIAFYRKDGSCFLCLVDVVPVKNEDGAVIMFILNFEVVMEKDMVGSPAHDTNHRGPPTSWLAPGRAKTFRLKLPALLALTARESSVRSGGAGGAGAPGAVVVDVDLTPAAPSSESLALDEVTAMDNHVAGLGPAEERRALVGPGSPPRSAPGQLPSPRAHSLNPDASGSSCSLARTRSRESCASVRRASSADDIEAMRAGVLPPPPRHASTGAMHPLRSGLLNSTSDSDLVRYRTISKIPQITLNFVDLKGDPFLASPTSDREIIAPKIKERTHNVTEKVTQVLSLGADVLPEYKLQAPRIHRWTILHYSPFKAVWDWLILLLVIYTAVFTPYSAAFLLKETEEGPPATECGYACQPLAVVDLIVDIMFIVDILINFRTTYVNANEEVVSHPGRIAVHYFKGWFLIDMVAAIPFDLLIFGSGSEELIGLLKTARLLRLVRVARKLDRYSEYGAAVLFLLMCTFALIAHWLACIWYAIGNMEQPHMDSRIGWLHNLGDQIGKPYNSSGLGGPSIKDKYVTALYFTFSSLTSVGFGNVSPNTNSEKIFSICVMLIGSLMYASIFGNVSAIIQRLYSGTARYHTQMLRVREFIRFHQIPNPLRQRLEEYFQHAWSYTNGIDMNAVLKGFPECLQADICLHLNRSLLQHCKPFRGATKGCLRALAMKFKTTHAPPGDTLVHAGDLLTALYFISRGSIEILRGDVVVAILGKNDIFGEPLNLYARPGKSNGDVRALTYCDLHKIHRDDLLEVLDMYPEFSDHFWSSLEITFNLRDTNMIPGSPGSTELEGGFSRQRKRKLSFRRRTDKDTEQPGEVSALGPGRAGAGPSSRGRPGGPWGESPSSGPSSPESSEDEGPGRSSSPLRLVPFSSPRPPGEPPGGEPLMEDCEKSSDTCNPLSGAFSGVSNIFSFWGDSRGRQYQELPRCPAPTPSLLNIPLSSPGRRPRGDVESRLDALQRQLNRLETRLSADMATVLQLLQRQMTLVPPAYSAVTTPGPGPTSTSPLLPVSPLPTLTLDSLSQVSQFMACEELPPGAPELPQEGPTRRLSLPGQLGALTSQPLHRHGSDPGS

| SMILES | hERG current change (%, negative = inhibition) at 10uM [%] |
| --- | --- |
| O=C(Cn1ncc2c(=O)oc3ccccc3c21)N1CCCN(Cc2ccccc2F)C1 | -25.5 |
| Cc1ccc(C2(C)NC(=O)N(CC(=O)N(C)CC(=O)Nc3cccc(F)c3)C2=O)cc1 (centres unmarked) | -2.36 |
| CCC(CC)C(=O)N1CCN(Cc2ccc3c(c2)OCO3)CC1 | 6.17 |
| CC(C)N(C(=O)Cn1cc(S(=O)(=O)CC(=O)Nc2ccccc2)c2ccccc21)C(C)C | -17.9 |
| O=C(CNC(=S)N(Cc1ccccc1Cl)C1CCCC1)NCCCN1CCOCC1 | 7.4 |
| O=C(CCc1nnc(CCCCc2ccccc2)o1)N1CCCC(O)C1 (centres unmarked) | -6.36 |
| O=C(CCCOc1ccccc1)Nc1ncccn1 | 26.3 |
| N#Cc1c[nH]n2c(=O)cc(Cc3ccccc3)nc12 | 19.9 |
| O=C(O)C(=O)O.c1cncc(CNCCc2ccc3c(c2)OCO3)c1 | 8.84 |
| COc1ccccc1NC(=O)CN(c1ccccc1)S(=O)(=O)c1ccccc1 | -4.39 |
| Cc1ccccc1Nc1ccc([N+](=O)[O-])cn1 | 9.97 |
| NC(=O)CSc1nnc2ccc(-c3ccc(Cl)cc3)nn12 | -4.22 |
| CCN1CCN(S(=O)(=O)c2ccc(Cl)c(C(=O)NC3CCCCC3)c2)CC1 | -30.4 |
| Cl.Nc1nonc1C(=O)N/N=C/c1cc(Br)ccc1O | 23.6 |
| COc1ccc(C)cc1NC(=O)C(OC(=O)c1cnc(C)cn1)c1ccccc1 (centres unmarked) | -48.8 |
| COc1ccc(CC(=O)N/N=C(\C)c2cccs2)cc1OC | 10.3 |
| CCOC(=O)C1CCN(C(=S)Nc2cccc(C)c2)CC1 | -1.7 |
| Cc1ccc(S(=O)(=O)N(C)C)cc1NC(=O)COC(=O)c1ccc2ccccc2n1 | -6.54 |
| CCc1nnc(NC(=O)c2ccc(S(=O)(=O)N(CC)CC)cc2)s1 | 10.5 |

| SMILES | hERG current change (%, negative = inhibition) at 10uM [%] |
| --- | --- |
| CC(C)Oc1ccc(C(=O)N(CN2CCCC2=O)c2ccc(F)cc2)cc1 | 4.39 |
| COc1ccc(C(C(=O)NCC2CCCO2)N(Cc2cccs2)C(=O)c2snc(C(N)=O)c2N)cc1OC (centres unmarked) | 24.1 |
| Nc1nc(/C=C/c2cccnc2)nc(-c2ccccc2O)n1 | 11.2 |
| COc1ccc(CCNC(=O)Cc2ccc([N+](=O)[O-])cc2)cc1OC | -11.6 |
| Cc1cccn2c(CNC3CCCc4ccccc43)c(C(=O)N3CCCCC3)nc12 (centres unmarked) | -17.3 |
| Cc1nc2nc(-c3ccccc3)nn2c(C)c1C | -10.6 |
| CC1OC(C[N+](C)(C)C)CC1O.[Cl-] (centres unmarked) | 5.35 |
| CCOC(=O)N1CCN(C(=O)CN(C)S(=O)(=O)c2ccc3c(c2)c(=O)n(C)c(=O)n3C)CC1 | 33.9 |
| N#Cc1c(N)sc(=S)c2c1CCN(Cc1ccccc1)C2 | -5.46 |
| COc1ccc2cc3cc(C(=O)NCCN4CCc5ccccc5C4)sc3nc2c1 | -32.9 |
| O=C(/C=C/c1ccc(Cl)cc1)NCc1ccco1 | -7.54 |
| CN1CCc2c(OCC(=O)N3CCC(Cc4ccccc4)CC3)cccc2C1=O | -43.8 |
| CN(C)Cc1ccccc1CCc1ccccc1.Cl | -13 |
| CNC(=O)C1=C(C)n2c(nc3ccccc32)NC1c1ccc(OC)cc1 (centres unmarked) | -5.06 |
| Cc1cc(C)c(S(=O)(=O)N2CCCCC2CCNC(=O)C(=O)NCC2CCCO2)c(C)c1 (centres unmarked) | -16.5 |
| O=C(COc1ccc(Cl)cc1Cl)NC(=S)N1CCCc2ccccc21 | 14.5 |
| c1cnc2nc(-c3ccc4c(c3)OCO4)cn2c1 | -0.0906 |
| CC(C)(C)NC(=O)C(=O)NN=C1CCCCCCC1 | 19.1 |
| O=C(CSc1nnc(-c2ccc(Br)cc2)o1)N1CCN(C(=O)c2ccco2)CC1 | -54.6 |

| SMILES | hERG current change (%, negative = inhibition) at 10uM [%] |
| --- | --- |
| CN(C)S(=O)(=O)c1cccc(C(=O)Nc2ccccc2N2CCCCC2)c1 | 5.55 |
| Cc1ccc(C(=O)c2cc3ccccc3o2)cc1[N+](=O)[O-] | 15.2 |
| Cc1cccc(N(CC(=O)N/N=C/c2ccc(OCC(=O)NCc3ccco3)cc2)S(C)(=O)=O)c1C | 4.14 |
| O=C(Cn1cnc2ccccc21)N/N=C/c1cccnc1 | 11 |
| CN(c1ccc([N+](=O)[O-])cc1C(N)=O)C1CCCCC1 | -0.575 |
| CCOc1ccc(NC(=S)N(CCOC)C(C)c2cccnc2)cc1 (centres unmarked) | 9.3 |
| CCOC(=O)CC1COCCN1Cc1cn[nH]c1-c1cc(OC)c(OC)c(OC)c1 (centres unmarked) | -10.5 |
| COc1cc(CN(CC2CCCO2)C(=O)c2ccco2)cc(OC)c1OC (centres unmarked) | 8.74 |
| COCC1=C(C(=O)OC(C)OC(=O)OC(C)C)N2C(=O)[C@@H](NC(=O)/C(=N\OC)c3csc(N)n3)[C@H]2SC1 (some centres unmarked) | -4.35 |
| COc1ccc(CNc2oc(COc3ccccc3)nc2C#N)cc1 | -7.81 |
| Cc1cccc2c1N(CCCOc1ccccc1)C(=O)C2=O | -1.77 |
| Cc1cc(C)c2nc(-c3cccnc3)cc(C(=O)NC(C)c3cnn(C)c3C)c2c1 (centres unmarked) | -30.6 |
| Oc1ccc(C2C(c3ccccc3)=NN=C(c3ccccc3F)N2O)c(O)c1 (centres unmarked) | 7.99 |
| CC1(C(=O)NCc2ccccc2)Oc2ccccc2NC1=O (centres unmarked) | 18.8 |
| Cc1csc(=O)n1CC(=O)OCC(=O)N(CC(C)C)c1c(N)n(Cc2ccccc2)c(=O)[nH]c1=O | -2.59 |
| CNC(=O)c1snnc1-c1ccccc1 | 11.7 |
| O=C(N/N=C/c1ccc(OCC(=O)N2CCCCC2)cc1)c1ccccc1O | 14.9 |
| CCOC(=O)c1nc[nH]c1C | -1.26 |
